The text below walks through data of paper PMC1769496.

Protein sequences, listed by entry. Tags and fused reporters are not part of them.
UniProt Q13153: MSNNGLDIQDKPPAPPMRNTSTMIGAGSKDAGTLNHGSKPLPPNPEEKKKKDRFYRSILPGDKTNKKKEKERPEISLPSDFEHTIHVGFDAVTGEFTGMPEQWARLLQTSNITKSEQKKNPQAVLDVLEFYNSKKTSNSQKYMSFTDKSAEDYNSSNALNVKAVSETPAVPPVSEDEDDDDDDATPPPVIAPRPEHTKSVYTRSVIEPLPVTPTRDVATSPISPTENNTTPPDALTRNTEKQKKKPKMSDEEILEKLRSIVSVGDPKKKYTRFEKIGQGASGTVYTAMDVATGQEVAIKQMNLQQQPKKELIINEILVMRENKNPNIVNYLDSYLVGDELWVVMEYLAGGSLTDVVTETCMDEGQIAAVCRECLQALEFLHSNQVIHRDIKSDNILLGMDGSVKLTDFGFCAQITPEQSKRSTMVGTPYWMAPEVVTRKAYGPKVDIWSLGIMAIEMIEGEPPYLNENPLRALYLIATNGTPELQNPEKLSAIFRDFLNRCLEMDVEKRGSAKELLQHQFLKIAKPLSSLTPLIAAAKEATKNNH
UniProt Q9NZN5: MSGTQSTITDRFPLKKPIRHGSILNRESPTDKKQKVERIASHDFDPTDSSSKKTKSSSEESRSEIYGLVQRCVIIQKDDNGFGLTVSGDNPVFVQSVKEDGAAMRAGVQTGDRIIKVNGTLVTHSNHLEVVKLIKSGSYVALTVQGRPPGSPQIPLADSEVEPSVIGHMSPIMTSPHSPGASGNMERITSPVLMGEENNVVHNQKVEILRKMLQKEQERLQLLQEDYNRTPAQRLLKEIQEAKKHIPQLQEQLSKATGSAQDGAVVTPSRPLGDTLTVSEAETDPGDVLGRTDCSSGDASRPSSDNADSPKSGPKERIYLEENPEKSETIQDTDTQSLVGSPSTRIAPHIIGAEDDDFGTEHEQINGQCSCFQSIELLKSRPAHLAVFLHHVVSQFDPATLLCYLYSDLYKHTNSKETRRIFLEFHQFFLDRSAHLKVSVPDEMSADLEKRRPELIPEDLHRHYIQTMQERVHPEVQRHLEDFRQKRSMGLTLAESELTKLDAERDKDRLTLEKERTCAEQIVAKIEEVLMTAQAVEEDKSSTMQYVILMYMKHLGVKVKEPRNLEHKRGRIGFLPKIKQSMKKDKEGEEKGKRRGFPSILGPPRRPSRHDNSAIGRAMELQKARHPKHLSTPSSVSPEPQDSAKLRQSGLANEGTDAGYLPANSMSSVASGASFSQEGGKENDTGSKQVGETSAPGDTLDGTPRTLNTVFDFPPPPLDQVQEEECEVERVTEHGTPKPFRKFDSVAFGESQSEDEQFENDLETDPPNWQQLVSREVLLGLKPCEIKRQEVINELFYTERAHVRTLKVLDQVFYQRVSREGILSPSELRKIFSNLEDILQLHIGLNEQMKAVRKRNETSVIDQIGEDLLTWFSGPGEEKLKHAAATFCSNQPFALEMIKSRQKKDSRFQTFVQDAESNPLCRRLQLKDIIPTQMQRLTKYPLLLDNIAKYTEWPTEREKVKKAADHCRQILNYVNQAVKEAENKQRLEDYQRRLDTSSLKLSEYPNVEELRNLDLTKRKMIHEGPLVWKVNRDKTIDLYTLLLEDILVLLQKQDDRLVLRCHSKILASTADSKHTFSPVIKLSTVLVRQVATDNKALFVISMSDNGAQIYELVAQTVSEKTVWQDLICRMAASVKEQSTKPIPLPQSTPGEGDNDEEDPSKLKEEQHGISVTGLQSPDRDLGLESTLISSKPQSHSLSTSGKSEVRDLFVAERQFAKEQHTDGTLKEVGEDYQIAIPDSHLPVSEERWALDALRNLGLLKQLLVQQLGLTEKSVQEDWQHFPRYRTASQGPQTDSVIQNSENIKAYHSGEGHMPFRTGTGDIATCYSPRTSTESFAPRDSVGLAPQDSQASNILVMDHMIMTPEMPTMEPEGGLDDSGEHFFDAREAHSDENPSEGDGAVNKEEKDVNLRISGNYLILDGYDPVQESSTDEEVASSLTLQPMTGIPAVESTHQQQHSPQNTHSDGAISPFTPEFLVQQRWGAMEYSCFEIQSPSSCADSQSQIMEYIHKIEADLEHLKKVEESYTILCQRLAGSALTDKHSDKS
UniProt O15085: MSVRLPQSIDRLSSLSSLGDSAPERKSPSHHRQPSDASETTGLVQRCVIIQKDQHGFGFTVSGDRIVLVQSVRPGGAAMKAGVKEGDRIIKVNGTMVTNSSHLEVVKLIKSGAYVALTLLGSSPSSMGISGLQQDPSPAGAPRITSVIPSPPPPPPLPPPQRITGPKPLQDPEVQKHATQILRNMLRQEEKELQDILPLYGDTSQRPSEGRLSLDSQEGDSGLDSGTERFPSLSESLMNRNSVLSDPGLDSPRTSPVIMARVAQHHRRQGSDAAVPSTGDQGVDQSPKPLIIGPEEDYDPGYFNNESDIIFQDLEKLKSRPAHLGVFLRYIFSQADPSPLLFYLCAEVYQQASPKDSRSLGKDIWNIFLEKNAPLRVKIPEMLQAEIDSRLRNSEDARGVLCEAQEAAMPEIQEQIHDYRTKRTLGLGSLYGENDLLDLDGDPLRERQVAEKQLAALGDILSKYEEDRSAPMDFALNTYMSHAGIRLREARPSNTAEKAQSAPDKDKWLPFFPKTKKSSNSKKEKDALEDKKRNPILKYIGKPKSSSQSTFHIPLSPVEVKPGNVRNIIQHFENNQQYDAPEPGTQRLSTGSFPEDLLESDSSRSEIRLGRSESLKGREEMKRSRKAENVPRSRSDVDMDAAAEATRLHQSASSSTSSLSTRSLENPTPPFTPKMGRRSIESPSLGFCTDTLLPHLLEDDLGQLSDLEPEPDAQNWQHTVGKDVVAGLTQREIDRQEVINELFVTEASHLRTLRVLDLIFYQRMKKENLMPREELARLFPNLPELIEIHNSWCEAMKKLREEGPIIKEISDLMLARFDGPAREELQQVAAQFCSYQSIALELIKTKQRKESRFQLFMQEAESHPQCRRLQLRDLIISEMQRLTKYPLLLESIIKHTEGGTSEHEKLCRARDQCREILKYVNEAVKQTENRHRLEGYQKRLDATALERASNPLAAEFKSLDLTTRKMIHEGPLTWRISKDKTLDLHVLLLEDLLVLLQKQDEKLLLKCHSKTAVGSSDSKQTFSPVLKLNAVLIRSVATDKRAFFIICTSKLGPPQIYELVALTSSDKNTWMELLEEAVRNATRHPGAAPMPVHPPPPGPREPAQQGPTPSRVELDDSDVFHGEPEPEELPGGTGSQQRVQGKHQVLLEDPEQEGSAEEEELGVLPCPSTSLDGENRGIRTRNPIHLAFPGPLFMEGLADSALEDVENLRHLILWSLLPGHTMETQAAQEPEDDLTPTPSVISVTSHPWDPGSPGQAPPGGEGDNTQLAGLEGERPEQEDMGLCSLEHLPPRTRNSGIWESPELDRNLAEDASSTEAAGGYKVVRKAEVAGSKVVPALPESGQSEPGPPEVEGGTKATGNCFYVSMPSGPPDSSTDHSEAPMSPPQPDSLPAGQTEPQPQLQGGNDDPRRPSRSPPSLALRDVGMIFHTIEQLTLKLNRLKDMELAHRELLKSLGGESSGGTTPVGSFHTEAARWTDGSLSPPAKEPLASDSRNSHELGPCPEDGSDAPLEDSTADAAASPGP

Results are given in words; binding and its absence hold for the method and conditions named. Binding seen in cells or lysates may run through a third protein. Some results given as binding are weak or reduced against the parent protein; the word gives no strength. For part of these data: Tags and fused reporters may be left off the sequences shown.

The target in experiment [1] is T1, AU1-tagged full length P115RhoGEF (UniProt Q92888).
T1 sequence: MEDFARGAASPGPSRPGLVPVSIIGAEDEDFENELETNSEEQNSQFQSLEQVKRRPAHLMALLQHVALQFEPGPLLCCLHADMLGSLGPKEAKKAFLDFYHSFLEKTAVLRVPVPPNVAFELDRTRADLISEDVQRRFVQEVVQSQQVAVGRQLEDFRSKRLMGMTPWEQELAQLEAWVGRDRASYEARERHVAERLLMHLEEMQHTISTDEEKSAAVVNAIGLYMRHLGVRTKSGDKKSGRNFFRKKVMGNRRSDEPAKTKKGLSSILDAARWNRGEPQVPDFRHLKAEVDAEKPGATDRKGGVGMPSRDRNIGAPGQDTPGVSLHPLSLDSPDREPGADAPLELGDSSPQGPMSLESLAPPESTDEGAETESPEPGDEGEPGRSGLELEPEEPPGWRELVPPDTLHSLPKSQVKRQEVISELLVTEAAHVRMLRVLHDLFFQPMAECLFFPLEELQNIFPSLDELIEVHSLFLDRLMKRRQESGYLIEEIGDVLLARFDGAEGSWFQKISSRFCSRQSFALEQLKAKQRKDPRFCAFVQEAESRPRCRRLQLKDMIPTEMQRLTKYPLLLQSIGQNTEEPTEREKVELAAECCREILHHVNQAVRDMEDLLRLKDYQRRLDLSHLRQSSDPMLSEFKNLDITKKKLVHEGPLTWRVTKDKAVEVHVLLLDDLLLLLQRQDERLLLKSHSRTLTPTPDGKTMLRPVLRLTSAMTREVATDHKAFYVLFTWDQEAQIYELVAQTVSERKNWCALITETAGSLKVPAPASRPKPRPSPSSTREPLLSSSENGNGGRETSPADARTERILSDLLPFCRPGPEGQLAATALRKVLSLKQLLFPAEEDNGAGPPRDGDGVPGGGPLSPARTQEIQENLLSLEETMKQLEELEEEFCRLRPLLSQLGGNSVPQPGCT
Kind of experiment: co-IP; HEK293T cells co-transfected with P115RhoGEF and myc-Pak1, with or without activated Rac (RacV12); lysates precipitated with anti-AU1, blotted with anti-Pak1.

In experiment [2] the target is wild-type myc tagged Pak1 (UniProt Q13153). The experiment can be described thus: co-IP; HEK293T cells co-transfected with GFP-tagged GEFs and myc-Pak1, with or without activated Rac (RacQL); lysates precipitated with anti-myc, blotted with anti-GFP.
The target is the same in experiment [3]. The experiment can be described thus: co-IP; HEK293T cells co-transfected with AU1-tagged P115RhoGEF deletion constructs or DH-PH domains and myc-Pak1, with or without activated Rac (RacQL); lysates precipitated with anti-myc, blotted with anti-AU1.

Consider “wild-type myc tagged Pak1 (from UniProt Q13153 1-545) (enzyme)”, for which the binding result in experiment [1] was “binds”. Regarding GFP-LARG (from UniProt Q9NZN5 1-1544), the binding entry in experiment [2] is “no binding”. Same read-out and setting: the result for “GFP-PDZ-RhoGEF (from UniProt O15085 1-1522)” reads “no binding”.

B1: AU1-tagged DH-PH domain of P115RhoGEF (domain or fragment, UniProt Q92888 351-771)
chain: PQGPMSLESLAPPESTDEGAETESPEPGDEGEPGRSGLELEPEEPPGWRELVPPDTLHSLPKSQVKRQEVISELLVTEAAHVRMLRVLHDLFFQPMAECLFFPLEELQNIFPSLDELIEVHSLFLDRLMKRRQESGYLIEEIGDVLLARFDGAEGSWFQKISSRFCSRQSFALEQLKAKQRKDPRFCAFVQEAESRPRCRRLQLKDMIPTEMQRLTKYPLLLQSIGQNTEEPTEREKVELAAECCREILHHVNQAVRDMEDLLRLKDYQRRLDLSHLRQSSDPMLSEFKNLDITKKKLVHEGPLTWRVTKDKAVEVHVLLLDDLLLLLQRQDERLLLKSHSRTLTPTPDGKTMLRPVLRLTSAMTREVATDHKAFYVLFTWDQEAQIYELVAQTVSERKNWCALITETAGSLKVPAPASRP
Regarding B1, the binding result in experiment [3] is “binds”.

B2: P115RhoGEF with deletion of the C-terminus (AU1-tagged) (domain or fragment, UniProt Q92888 1-771)
chain: MEDFARGAASPGPSRPGLVPVSIIGAEDEDFENELETNSEEQNSQFQSLEQVKRRPAHLMALLQHVALQFEPGPLLCCLHADMLGSLGPKEAKKAFLDFYHSFLEKTAVLRVPVPPNVAFELDRTRADLISEDVQRRFVQEVVQSQQVAVGRQLEDFRSKRLMGMTPWEQELAQLEAWVGRDRASYEARERHVAERLLMHLEEMQHTISTDEEKSAAVVNAIGLYMRHLGVRTKSGDKKSGRNFFRKKVMGNRRSDEPAKTKKGLSSILDAARWNRGEPQVPDFRHLKAEVDAEKPGATDRKGGVGMPSRDRNIGAPGQDTPGVSLHPLSLDSPDREPGADAPLELGDSSPQGPMSLESLAPPESTDEGAETESPEPGDEGEPGRSGLELEPEEPPGWRELVPPDTLHSLPKSQVKRQEVISELLVTEAAHVRMLRVLHDLFFQPMAECLFFPLEELQNIFPSLDELIEVHSLFLDRLMKRRQESGYLIEEIGDVLLARFDGAEGSWFQKISSRFCSRQSFALEQLKAKQRKDPRFCAFVQEAESRPRCRRLQLKDMIPTEMQRLTKYPLLLQSIGQNTEEPTEREKVELAAECCREILHHVNQAVRDMEDLLRLKDYQRRLDLSHLRQSSDPMLSEFKNLDITKKKLVHEGPLTWRVTKDKAVEVHVLLLDDLLLLLQRQDERLLLKSHSRTLTPTPDGKTMLRPVLRLTSAMTREVATDHKAFYVLFTWDQEAQIYELVAQTVSERKNWCALITETAGSLKVPAPASRP
As to B2, the binding entry in experiment [3] was “binds”.

B3: P115RhoGEF ΔN (AU1-tagged) (domain or fragment, UniProt Q92888 352-912)
chain: QGPMSLESLAPPESTDEGAETESPEPGDEGEPGRSGLELEPEEPPGWRELVPPDTLHSLPKSQVKRQEVISELLVTEAAHVRMLRVLHDLFFQPMAECLFFPLEELQNIFPSLDELIEVHSLFLDRLMKRRQESGYLIEEIGDVLLARFDGAEGSWFQKISSRFCSRQSFALEQLKAKQRKDPRFCAFVQEAESRPRCRRLQLKDMIPTEMQRLTKYPLLLQSIGQNTEEPTEREKVELAAECCREILHHVNQAVRDMEDLLRLKDYQRRLDLSHLRQSSDPMLSEFKNLDITKKKLVHEGPLTWRVTKDKAVEVHVLLLDDLLLLLQRQDERLLLKSHSRTLTPTPDGKTMLRPVLRLTSAMTREVATDHKAFYVLFTWDQEAQIYELVAQTVSERKNWCALITETAGSLKVPAPASRPKPRPSPSSTREPLLSSSENGNGGRETSPADARTERILSDLLPFCRPGPEGQLAATALRKVLSLKQLLFPAEEDNGAGPPRDGDGVPGGGPLSPARTQEIQENLLSLEETMKQLEELEEEFCRLRPLLSQLGGNSVPQPGCT
With B3, in experiment [3], the binding entry is reported as “binds”.
